Test results published in PubChem BioAssay AID1508624 (National Center for Advancing Translational Sciences (NCATS), 2021).
About 120 (0.25%) of roughly 48,000 compounds were called active. Inconclusive results (about 4%) are left out. Calls come from the whole dose curve; as a rule, active = well fitted activation curve with a large enough effect; inconclusive = small, poorly fitted or top-dose-only effect, or another doubt; inactive = no such curve, though single readings can be large or run the other way. The list shows a part of the results.

Experiment: Primary qHTS for Identification of Small Molecule Activators of Huntingtin-Antisense Promoter Activity; note: nearly all actives have a fitted effect of over 55% in size
Settings: HEK293 HTT-AS promoter firefly luciferase reporter, 24 h; series mostly up to 57.5 µM; activity change, positive = activation: at the top concentration
Method in brief: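 HEK293 Fluc reporter, 2,500 cells/well, 24 h pre-culture; cpds up to 57.5 uM final, 24 h 37 degrees C; Dual-Glo, 10 min RT; normalized vehicle = 0%, zero RLU = -100%.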
With `CCC(C)NC(=O)Cn1ccc2cc(S(=O)(=O)N3CCCCCC3)ccc21` (stereo not given) the “activity change, positive = activation” value was inactive: -32.1%.
For `CCC1=C(C)CN(C(=O)NCCc2ccc(S(=O)(=O)NC(=O)NC3CCC(C)CC3)cc2)C1=O` (stereo not given), the activity change, positive = activation was “inactive”.
With `O=C(Cc1ccc(-c2ccccc2)cc1)NCCS(=O)(=O)N1CCN(c2ccccc2F)CC1` the “activity change, positive = activation” value was inactive: -19.7%.
In the case of `COc1cccc(NC(=O)C2CCCN(c3ncnc4onc(C)c34)C2)c1` (stereo not given), the “activity change, positive = activation” value is reported as inactive: -20.7%.
With `CNC(=O)c1cc(COc2nnc(Nc3ccc(Cl)cc3)c3ccoc23)ccn1` the “activity change, positive = activation” value was inactive: -2.31%.
With `O=C(Nc1ccccc1C(=O)N1CCCCC1)c1nsc2ccccc12` the “activity change, positive = activation” value was inactive: -7.8%.
For `CCCCCOc1ccc(/C=C/C(=O)Nc2sc3c(c2C(=O)OCC)CCC3)cc1OC`, the “activity change, positive = activation” value was inactive: -1.75%.
In the case of `CCCCOc1cccc(C2c3c(-c4cc(C)ccc4O)n[nH]c3C(=O)N2CCOC)c1` (stereo not given), the “activity change, positive = activation” value is reported as inactive: -25.8%.
With `COc1ccc(NC(=O)CNC(=O)Cn2ccc3ccccc3c2=O)cc1OC` the “activity change, positive = activation” value was inactive: -11.8%.
For `CCc1ccc(NC(=O)c2cc(=O)c3ccc(C)c(C)c3o2)cc1`, the “activity change, positive = activation” value was inactive: -40.8%.
In the case of `COC(=O)CN1C(C(=O)c2ccccc2)=C(OC(=O)c2ccccc2)c2ccccc2S1(=O)=O`, the “activity change, positive = activation” value is reported as inactive: -16.8%.
In the case of `CCCN1C(C(=O)c2ccccc2)=C(OC(=O)COc2ccc(C)cc2)c2ccccc2S1(=O)=O`, the “activity change, positive = activation” value is reported as inactive: -33.8%.
For `Cc1ccc(NC(=O)CCCn2nc(C)c3c(C)n(-c4ccccc4)nc3c2=O)c(Cl)c1`, the “activity change, positive = activation” value was inactive: 0.553%.
With `COc1ccc(S(=O)(=O)N(CC(=O)Nc2ccc(Br)cc2)Cc2ccccc2)cc1` the “activity change, positive = activation” value was inactive: -21.2%.
With `Cc1ccc(NC(=O)C2CCCN(S(=O)(=O)c3cccs3)C2)c(C)c1` (stereo not given) the “activity change, positive = activation” value was inactive: -20.4%.
In the case of `CCOC(=O)c1cc(NC(=O)c2ccc(F)cc2)c(=O)n2c1oc1ccc(Cl)cc12`, the “activity change, positive = activation” value is reported as inactive: 1.89%.
With `CCCSCCCNC(=O)Cn1c(-c2cccs2)cc2ccccc21` the “activity change, positive = activation” value was inactive: -35%.
With `Cc1cc(O)c(CN2CCN(c3ccccc3)CC2)c2oc(=O)cc(C)c12` the “activity change, positive = activation” value was inactive: -12.4%.
In the case of `O=C(Nc1c2c(nn1-c1ccc(Cl)cc1)CS(=O)(=O)C2)c1ccc(Br)cc1`, the “activity change, positive = activation” value is reported as inactive: -55.1%.
With `Cc1nc(-c2ccc(S(=O)(=O)NCc3ccccc3Cl)cc2)co1` the “activity change, positive = activation” value was inactive: -21.4%.
In the case of `CCCCN(CCCC)C(=O)c1c[nH]c2ccc(S(=O)(=O)Nc3cccc(Cl)c3C)cc2c1=O`, the “activity change, positive = activation” value is reported as inactive: -31.7%.
With `CCCn1c2ccccc2c2cnn(CC(=O)N3CCCC(C(=O)OCC)C3)c(=O)c21` (stereo not given) the “activity change, positive = activation” value was inactive: -23.5%.
For `CCN1CCN(C(=O)Cn2ncc3c4ccccc4n(Cc4c(C)cc(C)cc4C)c3c2=O)CC1`, the “activity change, positive = activation” value was inactive: -20.9%.
For `Cc1ccc(CCNC(=O)c2ccc3c(c2)N(Cc2cccc(F)c2)C(=O)c2ccccc2S3)cc1`, the “activity change, positive = activation” value was inactive: -15.6%.
For `Cc1ccc2c(=O)cc(C(=O)Nc3sc4c(c3C(=O)NCc3cccnc3)CCCC4)oc2c1`, the activity change, positive = activation was inactive: 4.25% [at 11.5 µM, percent change from vehicle, -100% = no light].
